# Measurements as given in PubChem BioAssay AID463173 (ICCB-Longwood Screening Facility, Harvard Medical School, 2010).
# The campaign covered roughly 52,000 compounds. About 1,700 (3.3%) were called active. Cut-off read from the data, not from the text of the source: active = survival mostly below about 52% (no sharp cut-off); inactive = mostly above about 56%. The list shows a part of the results.
# Test system: Wild type
# Assay: S. aureus survival, RN4220 and DeltatarO strains – OD600, teichoic acid synthesis inhibitors, primary screen (AID 463173)
# Details: S. aureus RN4220 wild type/DeltatarO growth, OD600, 18 h, stronger effect = lower value, screened at 18.75 µg/mL (by protocol)
row,SMILES,survival
1,COCCn1c(-c2ccccc2)n[nH]c1=S,inactive: 106%
2,O=C(NCCc1ccc(Cl)cc1)c1ccc(Nc2nc3ccccc3n3nnnc23)cc1,inactive: 81%
3,COc1ccc(NC(=O)c2nc(SCc3ccc(F)cc3)ncc2Cl)cc1,inactive: 85%
4,CCOc1ccc(NC(=O)c2sc(-n3nc(C)c(CCC(C)C)c3C)nc2C)cc1,inactive: 123%
5,Cc1cccc(NC(=O)C(=O)NCCCN2CCOCC2)c1,inactive: 123%
6,Cc1ccc(-n2ncc3c(NCCc4ccc(S(N)(=O)=O)cc4)ncnc32)cc1,inactive: 71%
7,Cc1ccccc1Nc1c(-c2ccc(N3CCOCC3)cc2)nc2cccc(C)n12,inactive: 59%
8,CCC(C)Nc1nc2c(c(=O)[nH]c(=O)n2C)n1Cc1ccc(F)cc1 (centres undefined),inactive: 69%
9,CCOc1ccccc1CNC(=O)c1ccc2nc(N3CCC(C)CC3)sc2c1,inactive: 84%
10,C=Cc1ccc(Cn2c(C(=O)O)c(CNCCc3ccco3)c3ccc(C)cc32)cc1,inactive: 131%
11,COC(=O)c1cc2sccc2n1Cc1nc(-c2cccc(Cl)c2)oc1C,inactive: 61%
12,CC1=C(c2ccc(C)cc2)S(=O)(=O)NC1=NCc1ccccc1Cl,inactive: 81%
13,CCCCOC(=O)CSc1ncnc2sc3c(c12)CCC(C)C3 (centres undefined),active: 15%
14,Cc1ccc2oc(-c3cccc(NC(=O)c4cccc5c(Cl)cccc45)c3)nc2c1,inactive: 70%
15,CCCCn1c(CCCNC(=O)c2cccc(C)c2)nc2ccccc21,inactive: 73%
16,Cc1nc2cc(-c3cccc(F)c3)nn2c(C)c1CCC(=O)Nc1ccccc1C(N)=O,inactive: 73%
17,Cc1cccc(NC(=O)c2ccc(CN3CC(=O)N4CCCCC4C3=O)cc2)c1C (centres undefined),inactive: 64%
18,COCCNC(=O)Cn1nc(-c2ccc(C)cc2)c2ccccc2c1=O,inactive: 73%
19,COc1ccc(CNc2nc(-c3ccc(Cl)cc3)cc(C(F)(F)F)n2)cc1,active: -4%
20,COc1cccc(Cn2nnc3c(=O)[nH]c(C4CCCN(C(=O)c5ccccc5Cl)C4)nc32)c1 (centres undefined),inactive: 104%
21,Cc1cc(N2CCN(c3cccc(C)c3C)CC2)nc(-c2ccccc2)n1,inactive: 90%
22,CCc1ccccc1NC(=O)COCc1cc(-c2ccco2)on1,inactive: 65%
23,Cc1cccc2cc3c(nc12)SC(=NCc1ccco1)N(Cc1cccs1)C3,inactive: 104%

row,SMILES,survival
1,COC(=O)c1c(-c2ccc(Cl)cc2)noc1N1CCN(c2ccccc2OC)CC1,inactive: 70%
2,COc1ccccc1S(=O)(=O)Cc1ccc(C(=O)N2CCN(c3cc(Cl)ccc3C)CC2)o1,inactive: 63%
3,Cc1cc(C)c(Cn2c(=O)n(CCC(=O)NCc3ccc4c(c3)OCO4)c(=O)c3ccccc32)c(C)c1,inactive: 92%
4,O=C(NCCc1ccccc1)c1ccc2nc(CCc3ccccc3)oc2c1,active: 0%
5,CCOc1ccc2c(c1)c(=O)c(C(=O)c1ccc(CC)cc1)cn2CC(=O)Nc1cccc(Cl)c1,inactive: 125%
6,COc1cc(C2CC(=O)Nc3ccc4ccccc4c32)ccc1OC(=O)C(C)C (centres undefined),inactive: 64%
7,Cc1ccc2occ(CC(=O)N(Cc3ccc(Cl)cc3)Cc3ccco3)c2c1,inactive: 109%
8,Cc1ccc(N2C(=O)[C@@H]3CSC(c4ccc(Cl)cc4)N3C2=O)cc1 (some centres undefined),inactive: 82%
9,C#CCn1c(O)c(N=NC(=O)c2ccncc2)c2cc(Br)ccc21,inactive: 110%
10,CCOc1ccc(OCC)c(NC(=O)C2CCN(S(=O)(=O)c3ccc4c(c3)CC(C)N4C(C)=O)CC2)c1 (centres undefined),inactive: 121%
11,O=C(c1ccco1)N(Cc1cccs1)c1ccc(F)cc1,inactive: 107%
12,Cc1cc(O)c(C(c2ccccc2)N2CCN(c3ccc(F)cc3)CC2)c(=O)n1Cc1ccco1 (centres undefined),inactive: 60%
13,Cc1ccc(-n2c(CCC(=O)O)ccc2-c2cccs2)cc1Cl,inactive: 107%
14,CCc1ccccc1NC(=O)c1cc2nc(-c3ccc(Br)cc3)cc(C(F)(F)F)n2n1,inactive: 91%
15,CC(C)c1nc2ccc(C(=O)NCc3ccccc3Br)cc2o1,inactive: 60%
16,Cc1cccc(OCc2cc(=O)n3c4c(sc3n2)CCCC4)c1C,inactive: 128%
17,CCc1ccc(C(=O)CC2(O)C(=O)N(Cc3ccc(C)cc3)c3ccccc32)cc1 (centres undefined),inactive: 48%
18,O=C(NCC1CCN(Cc2cccc(Cl)c2)CC1)Nc1ccc(F)c(Cl)c1,active: 14%
19,COc1cccc(CNC(=O)c2ccc(-n3c(C)cc4c3CCCC4)cc2)c1,inactive: 68%
20,Cc1noc(-c2ccccc2OCC(=O)Nc2ccccc2[N+](=O)[O-])n1,inactive: 67%
21,COc1ccc(CNC(=O)c2sc3nc[nH]c(=O)c3c2C)cc1,inactive: 70%
22,CCOc1ccccc1N1CC(c2nc3ccccc3n2CCCOc2ccc(OC)cc2)CC1=O (centres undefined),inactive: 89%
23,CC(C)OCCCN1C(=O)c2[nH]nc(-c3ccccc3O)c2C1c1ccccc1F (centres undefined),inactive: 70%

row,SMILES,survival
1,O=C(Nc1ccc(S(=O)(=O)c2ccc(NC(=O)c3ccco3)cc2)cc1)c1ccco1,inactive: 115%
2,COc1ccc2cc(CNc3ccc(C)cc3)c(=O)n(CC(=O)Nc3ccc(C)cc3Cl)c2c1,inactive: 74%
3,CCN1CCSc2ccc(C(=O)NCc3cccc(Br)c3)cc21,inactive: 86%
4,CCOc1ccc(NC(=O)CSc2c3c(nc4ccccc24)CCCC3)cc1,inactive: 87%
5,CCCCOc1ccccc1C(=O)N(Cc1sccc1C)C1CCS(=O)(=O)C1 (centres undefined),inactive: 85%
6,Cc1ccc(-c2cn3nc(N4CCCC(C(=O)NCc5ccc(F)cc5)C4)sc3n2)cc1 (centres undefined),inactive: 88%
7,CC(C)(C)c1ccc(C(=O)N2CCCC(c3nc4c(nnn4Cc4cccc(F)c4)c(=O)[nH]3)C2)cc1 (centres undefined),inactive: 17%
8,CCn1c(SC)nnc1C1CCCN(CC(=O)NCc2ccc3c(c2)OCO3)C1 (centres undefined),inactive: 116%
9,Cc1cc(C)cc(NC(=O)Cn2c(=O)n(-c3ccc(C)c(C)c3)c(=O)c3oc4ccccc4c32)c1,inactive: 80%
10,COC(=O)c1ccc(NC(=O)CCn2cnnn2)c(C)c1,inactive: 75%
11,Cc1ccc2nc(CN3CCN(S(=O)(=O)c4ccc(C(C)C)cc4)CC3)oc2c1,inactive: 90%
12,CCN1C=CC2=C(C#N)C(N)C(C#N)(C#N)C(c3ccccc3C(F)(F)F)C2C1 (centres undefined),inactive: 105%
13,Cc1ccc2occ(CC(=O)Nc3ccc(S(=O)(=O)N4CCCC(C)C4)cc3)c2c1 (centres undefined),inactive: 65%
14,COc1ccc(NC(=O)C2CCN(C(=O)N3CCOc4ccccc43)CC2)cc1,inactive: 84%
15,Cc1ccccc1Cn1nnc2c(=O)[nH]c(C3CCN(C(=O)c4ccccc4Cl)CC3)nc21,inactive: 53%
16,CC(C)C(NS(=O)(=O)c1ccccc1)C(C)C,inactive: 102%
17,COc1ccc(NC(=O)CN2C(=O)CSc3ccc(S(=O)(=O)N(C)C)cc32)cc1Cl,inactive: 83%
18,O=C(Nc1ccc(Cl)c(C(F)(F)F)c1)c1ccc2c(c1)CCN2S(=O)(=O)c1ccccc1,inactive: 78%
19,Cc1ccc(-n2ncc(C(=O)NCc3ccccn3)c2C2CCN(C(=O)OC(C)(C)C)CC2)c(C)c1,inactive: 45%
20,COc1ccc(CNC(=O)CCCn2c(=O)c3cccn3c3ccc(F)cc32)cc1OC,inactive: 58%
21,O=c1c2cc3c(cc2n(Cc2ccccc2)c(=O)n1Cc1nc(-c2ccccc2)no1)OCO3,inactive: 112%
22,COc1ccc(-c2noc(N3CCC(C(=O)Nc4ccc(OC)c(OC)c4)CC3)n2)cc1,inactive: 103%
23,COCCCNC(=O)C(C)n1c2ccccc2c2cnn(C)c(=O)c21 (centres undefined),inactive: 85%

row,SMILES,survival
1,COc1ccc(NC(=O)N2CCN(S(=O)(=O)c3ccc4c(ccn4C)c3)CC2)cc1OC,inactive: 129%
2,CCC1CN(C(=O)NCc2ccccc2)c2cc(C)ccc2O1 (centres undefined),inactive: 85%
3,CCCSc1nc(-c2ccc(OC)cc2)cc(-c2ccccc2OC)c1C#N,inactive: 65%
4,Cc1cccc(C)c1NC(=O)CN(Cc1ccc(Br)cc1)S(=O)(=O)c1ccccc1,inactive: 71%
5,COc1ccc(Br)cc1CNC(=O)c1cc(=O)[nH]c2ccc(S(=O)(=O)N3CCCCC3)cc12,inactive: 72%
6,CN(C)c1ccc(C(CNC(=O)c2cccc(C(F)(F)F)c2)N2CCCC2)cc1 (centres undefined),inactive: 99%
7,COc1ccc(Cl)cc1Nc1cc(C)nc2nc(-c3ccccc3C)nn12,inactive: 97%
8,CCOc1ccc(NC(=O)C2CCN(S(=O)(=O)c3c(C)noc3/C=C/c3c(C)cc(C)cc3C)CC2)cc1,inactive: 68%
9,CCCC(=O)Nc1cccc(-c2cn3cccnc3n2)c1,inactive: 53%
10,Cc1ccc(CNc2ncnc3c2c(-c2ccccc2)cn3-c2ccccc2)cc1,inactive: 97%
11,CCOC(=O)c1ccc(NS(=O)(=O)c2ccc3c(c2)OCCO3)cc1,inactive: 77%
12,COc1ccc(OC)c(CCNC(=O)Cn2ccc3cc(S(=O)(=O)N4CCCCC4)ccc32)c1,inactive: 87%
13,c1ccc2c(c1)c1ccccc1n2CN1CCOCC1,inactive: 114%
14,CCN(CC)c1ccc(NC(=O)c2sc3ccccc3c2Cl)cc1,active: 15%
15,COc1ccc(OC)c(-c2noc(N3CCN(c4cc(C)ccc4C)CC3)n2)c1,inactive: 76%
16,CCOC(=O)c1cc(OC(=O)c2ccc(OC)cc2)n(-c2ccccc2)n1,inactive: 74%
17,COc1ccc(NC(=O)C(Cc2ccccc2)NS(=O)(=O)c2ccc3c(c2)CCN3C(C)=O)cc1 (centres undefined),inactive: 79%
18,Cc1ccc(C)c(CNC(=O)c2ccc3c(c2)nc2n3CCC(C)C2)c1 (centres undefined),inactive: 90%
19,Cc1ccc(N(C)S(=O)(=O)c2nnc(NC(=O)CC(C)C)s2)cc1,inactive: 87%
20,COc1ccccc1-c1cc2nc(C)c(CCC(=O)NCCc3ccc(SC)cc3)c(C)n2n1,inactive: 135%
